Data on 57 compounds can be found in PubChem BioAssay AID360 (National Center for Advancing Translational Sciences (NCATS), 2006).

The whole screen tested about 48,000 compounds, of which about 550 (1.1%) were called active. Another 4% or so got no clear call; they are omitted. No stated cut-off is given here; in the data, active means potency below about 15 µM; inconclusive means mostly about 16 µM to 33 µM; inactive means weaker than that. The list shows a part of the results.
Potency means the concentration at half of the fitted maximal effect.

In this assay the target is Lysosomal acid glucosylceramidase (Homo sapiens) (UniProt P04062). Kind of assay: Glucocerebrosidase.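 Further: the screen sought inhibitors.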 The settings on record: purified enzyme, resorufin glucoside fluorescence (screen aimed at inhibitors), 20 min. The essentials: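 Wild-type enzyme at 0.2 nM final in 50mM citric acid/KH2PO4, 10mM sodium taurocholate, 0.01% tween-20, pH 5.9, with resorufin beta-D-glucopyranoside at 30 uM final. Compounds titrated, 20 min at RT, red fluorescence read; AC50 from titration.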
UniProt P04062, sequence (P04062 whole entry, looked up): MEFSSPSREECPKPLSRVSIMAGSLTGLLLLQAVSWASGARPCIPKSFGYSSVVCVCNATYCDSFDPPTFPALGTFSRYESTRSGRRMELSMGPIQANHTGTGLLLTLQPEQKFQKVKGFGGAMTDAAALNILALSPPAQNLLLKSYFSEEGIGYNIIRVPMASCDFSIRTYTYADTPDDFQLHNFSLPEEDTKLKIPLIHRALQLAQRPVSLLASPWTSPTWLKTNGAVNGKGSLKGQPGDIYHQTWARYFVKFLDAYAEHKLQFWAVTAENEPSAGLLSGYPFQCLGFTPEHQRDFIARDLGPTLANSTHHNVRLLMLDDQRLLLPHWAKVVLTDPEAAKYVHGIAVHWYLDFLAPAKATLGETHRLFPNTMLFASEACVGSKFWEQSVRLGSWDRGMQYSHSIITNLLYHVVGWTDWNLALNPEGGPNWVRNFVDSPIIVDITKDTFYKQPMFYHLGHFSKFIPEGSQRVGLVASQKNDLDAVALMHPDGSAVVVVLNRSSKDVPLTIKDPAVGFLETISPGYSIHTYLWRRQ
With `O=S(=O)(Cc1ccccc1)NCc1cccnc1`, the Potency was inactive: > 76.9 µM.

For `O=c1sc(Nc2ccccc2)nc2ccsc12`, the Potency is inactive: > 76.9 µM.

As to `Cc1ccc2c(c1)N(C(=O)CSc1nncn1C)C(C)(C)c1ssc(=S)c1-2`, the Potency is inactive: > 76.9 µM.

As to `OC(CCCCN1CCCCC1)c1ccccc1` (configuration not stated), the Potency was inactive: > 76.9 µM.

As to `O=C1CC(NC23CC4CC(CC(C4)C2)C3)C(=O)N1c1ccc2c(c1)OCO2` (configuration not stated), the Potency was inactive: > 76.9 µM.

In the case of `COc1ccc(-c2nnn(CC(=O)N(C3CCCC3)C(C)C(=O)NC3CCCC3)n2)cc1OC` (configuration not stated), the Potency is inactive: > 76.9 µM.

For `NC(=O)C1(N2CCCCC2)CCN(C(=O)c2ccc(C#Cc3ccccc3)o2)CC1`, the Potency was inactive: > 76.9 µM.

Take `Cc1csc(C(C#N)C(=O)c2ccc(S(=O)(=O)N3CCCC3)cc2)n1` (configuration not stated): the Potency is inactive: > 76.9 µM.

Take `COc1ccccc1C(=O)NCCCN1CCCC1=O`: the Potency was inactive: > 76.9 µM.

Turning to `COc1cc(C(=O)Nc2c(C)cc(C)cc2C)c(-n2cnnn2)cc1OC`, the Potency was inactive: > 76.9 µM.

With `O=C(NCc1ccc(Cl)cc1)c1noc2c1CCCCC2`, the Potency is inactive: > 76.9 µM.

Consider `CC(=O)N=C1SC2CS(=O)(=O)CC2N1c1cccc(Cl)c1Cl` (configuration not stated), for which the Potency was inactive: > 76.9 µM.

As for `Cc1ccc(S(=O)(=O)N2CCN(S(=O)(=O)N3CCCCC3)CC2)cc1`, the Potency was inactive: > 76.9 µM.

Regarding `Cc1ccc(NC(=O)Nc2ccc(F)cc2)nc1`, the Potency was inactive: > 76.9 µM.

As for `Cc1ccc(OCc2nnc(NC(=O)Cc3cccs3)s2)cc1`, the Potency is inactive: > 76.9 µM.

Take `CCOC(=O)NC1(C(F)(F)F)C(=O)NC(C)=C1C(=O)OC` (configuration not stated): the Potency is inactive: > 76.9 µM.

Consider `NC(=O)CCS(=O)(=O)CCN1CCCCC1`, for which the Potency is inactive: > 76.9 µM.

For `CCOc1ccc(C(C)=O)cc1CSc1nnc(-c2ccoc2C)n1N`, the Potency was inactive: > 76.9 µM.

`CC(=O)c1cccc(NC(=O)c2cc(-c3ccc(F)cc3)on2)c1`: the Potency is inactive: > 76.9 µM.

`COCCn1nnnc1C(c1cccc(OC)c1OC)N1CCN(C2CCCCC2)CC1` (configuration not stated): the Potency was inactive: > 76.9 µM.

In the case of `CC1CCCC(C(=O)OCc2ccccc2)N1` (configuration not stated), the Potency is inactive: > 76.9 µM.

For the compound `Cc1onc(-c2ccccc2Cl)c1C(=O)OCC(=O)c1ccc2c(c1)OCCO2`, the Potency was inactive: > 76.9 µM.

Consider `CCN(CC(=O)N1CCN(C)CC1)S(=O)(=O)c1ccc(Cl)cc1`, for which the Potency is inactive: > 76.9 µM.

Turning to `CC1CN(Cc2nc3c(c(=O)n(C)c(=O)n3C)n2CC(=O)c2ccccc2)CC(C)O1` (configuration not stated), the Potency was inactive: > 76.9 µM.

Turning to `CCS(=O)(=O)N1CCC(C(=O)N2CCc3ccccc3C2)CC1`, the Potency was inactive: > 76.9 µM.

Turning to `Cc1ccc(C(=O)Nc2ccc3c(c2)OCO3)cc1S(=O)(=O)N1CCCC1`, the Potency is inactive: > 76.9 µM.

In the case of `Cc1nc2ccccc2c(=O)n1/N=C/c1ccccn1`, the Potency was inactive: > 76.9 µM.

Take `Cc1cc(C)c2ccc(C)[n+]([O-])c2c1O`: the Potency is inactive: > 76.9 µM.

With `CCOC(=O)c1c(C#N)c(SCC(=O)Nc2ccc(OC)cc2)nc2c1CN(CC)CC2`, the Potency is inactive: > 76.9 µM.

Take `CCC(C)(C)NC(=O)C(c1cccn1C)N(C(=O)Cn1nnc2ccccc21)c1ccc(OC)cc1` (configuration not stated): the Potency was inactive: > 76.9 µM.

Consider `COCCn1c(SCC#N)nnc1-c1ccccc1O`, for which the Potency was inactive: > 76.9 µM.

`Cc1cc(C)n2nc(C(=O)OCCOc3ccc(Br)cc3)nc2n1`: the Potency is inactive: > 76.9 µM.

Regarding `O=C1CCCC2=C1C(O)(C(F)(F)F)C(=O)N2Cc1ccccc1` (configuration not stated), the Potency was inactive: > 76.9 µM.

As for `CCC(C)(C(=O)NC1CCCC1)N(Cc1cccs1)C(C)=O` (configuration not stated), the Potency is inactive: > 76.9 µM.

With `COc1ccc(CCNCc2csc3nc4ccccc4n23)cc1OC`, the Potency was inactive: > 76.9 µM.

For `CC(C)OCCCNc1ncc2c(n1)CC(c1ccc(N(C)C)cc1)CC2=O` (configuration not stated), the Potency was inactive: > 76.9 µM.

As to `CCn1cc(C(=O)NCc2ccco2)c(=O)c2cc(S(=O)(=O)N3CC(C)CC(C)C3)ccc21` (configuration not stated), the Potency was inactive: > 76.9 µM.

Turning to `Cc1ccc(S(=O)(=O)N(C)c2ccc(NS(C)(=O)=O)cc2)cc1`, the Potency was inactive: > 76.9 µM.

As to `CN(C)S(=O)(=O)N1CCN(C(=O)N(c2ccccc2)c2ccccc2)CC1`, the Potency was inactive: > 76.9 µM.

On to `COc1cc(C2C3C(=O)N(c4ccccc4)C(=O)C3ON2c2ccccc2)cc(OC)c1OC` (configuration not stated), for which the Potency is inactive: > 76.9 µM.

For the compound `Cc1cc(C)nc(N2CCCC(C(=O)Nc3ccc4nc(C)c(C)nc4c3)C2)n1` (configuration not stated), the Potency was inactive: > 76.9 µM.

Regarding `c1ccc(CCNc2ncnc3c2cnn3-c2ccccc2)cc1`, the Potency was inactive: > 76.9 µM.

Turning to `Cc1ccc(S(=O)(=O)N2CCC(C(=O)N[C@H](C(=O)NCC3CCCO3)C(C)C)CC2)cc1` (some centres not stated), the Potency is inactive: > 76.9 µM.

As for `O=C(CSc1nc2ccccc2n1-c1ccccc1)NCC1CCCO1` (configuration not stated), the Potency is inactive: > 76.9 µM.

For the compound `O=C(c1csc2ccccc12)N1CCN(c2ccccn2)CC1`, the Potency is inactive: > 76.9 µM.

For the compound `OCC(C#CCN1CCCCC1)NCc1ccccc1` (configuration not stated), the Potency is inactive: > 76.9 µM.

Take `COc1ccc(-c2nc(CSCC(=O)N3CCc4ccccc43)c(C)o2)cc1OC`: the Potency is inactive: > 76.9 µM.

`CC1CN(C(=O)c2ccncc2)CC(C)O1` (configuration not stated): the Potency was inactive: > 76.9 µM.

Regarding `CCn1cc(C(=O)Nn2cnnc2)c(=O)c2ccc(C)nc21`, the Potency was inactive: > 76.9 µM.

Regarding `CCOC(=O)C1(C)NC(c2ccc(N(C)C)cc2)C2C(=O)N(c3ccc(OC)cc3)C(=O)C21` (configuration not stated), the Potency is inactive: > 76.9 µM.

`O=C(N1CCN(Cc2ccc3c(c2)OCO3)CC1)C12CC3CC(CC(C3)C1)C2`: the Potency was inactive: > 76.9 µM.

For the compound `COc1ccc(-c2noc(CSc3ccccc3)n2)cc1OC`, the Potency is inactive: > 76.9 µM.

Turning to `Cc1nn(-c2ccccc2)c2[nH]c(=O)c(CNc3ccc(N4CCOCC4)cc3)cc12`, the Potency was inactive: > 76.9 µM.

Turning to `O=C(Cn1cnc2ccccc2c1=O)Nc1ccc2c(c1)OCCO2`, the Potency is inactive: > 76.9 µM.

As to `Cc1cc(C)c2c(n1)nn1c(NCCCN(C)C)cc(C)nc21`, the Potency is inactive: > 76.9 µM.

In the case of `O=C(Nc1cccc(-n2cnnn2)c1)c1ccco1`, the Potency was inactive: > 76.9 µM.

`Clc1ccc(OCCn2ccnc2)c2ccccc12`: the Potency is inactive: > 76.9 µM.
